The whole screen tested about 310,000 compounds, of which about 14,000 (4.5%) showed an effect of 50% or more. The effect is printed as a negative number. Some of the results follow.
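Further: peak tail current of the secondary pulse compared with the same well before compound.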

The target in this assay is human ether-à-go-go-related gene (hERG) potassium channel (human, UniProt Q12809). Put plainly: primary screen, population patch clamp on CHO cells stably expressing hERG.
Chain of human ether-à-go-go-related gene (hERG) potassium channel (Q12809 whole entry, looked up): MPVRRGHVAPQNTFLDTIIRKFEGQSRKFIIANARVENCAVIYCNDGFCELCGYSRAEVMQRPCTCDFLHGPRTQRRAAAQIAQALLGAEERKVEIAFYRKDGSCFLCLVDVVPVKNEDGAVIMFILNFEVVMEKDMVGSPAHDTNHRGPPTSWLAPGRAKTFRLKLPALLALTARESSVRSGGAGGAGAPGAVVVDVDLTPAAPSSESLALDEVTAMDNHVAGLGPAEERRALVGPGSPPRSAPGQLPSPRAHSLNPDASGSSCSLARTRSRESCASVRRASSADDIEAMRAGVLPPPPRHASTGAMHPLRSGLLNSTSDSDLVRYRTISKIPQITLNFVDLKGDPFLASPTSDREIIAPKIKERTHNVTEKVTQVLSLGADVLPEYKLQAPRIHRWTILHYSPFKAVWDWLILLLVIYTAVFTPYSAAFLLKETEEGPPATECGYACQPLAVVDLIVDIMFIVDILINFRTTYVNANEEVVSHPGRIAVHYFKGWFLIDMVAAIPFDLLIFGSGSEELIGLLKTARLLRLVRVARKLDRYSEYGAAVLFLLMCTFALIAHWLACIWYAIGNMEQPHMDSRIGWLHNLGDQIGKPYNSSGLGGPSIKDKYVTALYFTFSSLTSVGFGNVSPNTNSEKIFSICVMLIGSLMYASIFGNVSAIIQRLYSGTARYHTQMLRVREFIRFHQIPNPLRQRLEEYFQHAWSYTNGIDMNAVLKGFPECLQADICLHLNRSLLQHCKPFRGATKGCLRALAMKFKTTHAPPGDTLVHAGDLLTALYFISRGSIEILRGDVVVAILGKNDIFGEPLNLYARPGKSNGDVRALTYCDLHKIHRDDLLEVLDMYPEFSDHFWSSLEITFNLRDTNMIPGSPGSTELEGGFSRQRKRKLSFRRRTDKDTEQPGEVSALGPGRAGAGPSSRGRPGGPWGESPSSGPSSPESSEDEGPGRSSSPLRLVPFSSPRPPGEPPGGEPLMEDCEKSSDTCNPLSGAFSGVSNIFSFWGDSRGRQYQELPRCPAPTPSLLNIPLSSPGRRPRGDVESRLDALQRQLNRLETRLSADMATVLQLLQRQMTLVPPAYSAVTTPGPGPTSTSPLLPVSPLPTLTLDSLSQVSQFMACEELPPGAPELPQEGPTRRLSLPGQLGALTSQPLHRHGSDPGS
As to `COC(=O)C1=C(C)N(C)C(=S)NC1c1ccc(Cl)cc1` (stereo not drawn), the “hERG current change (%, negative = inhibition) at 10uM” value is recorded as -3.81%.
For `O=C(NCCN1CCOCC1)c1c(O)nc2ccccn2c1=O`, the “hERG current change (%, negative = inhibition) at 10uM” value was 10.9%.
In the case of `C=CCOc1c(Br)cc(CNn2cn[nH]c2=S)cc1OC` it was -22.9%; in that of `O=C(c1ccccc1)N1CCN(CCc2ccccc2)CC1`, -43.6%.
In the case of `O=C(Cc1ccc([N+](=O)[O-])cc1)N1N=C(c2ccncc2)CC1(O)C(F)(F)F` (stereo not drawn) it was 14.1%; in that of `CN1C(=O)C(Cc2cccc3ccccc23)C(=O)N(C)C1=O`, 4.79%; in that of `COc1cc(C[C@@H](C)N)c(OC)cc1I.Cl`, -11.8%.
The result for `S=c1nc(-c2ccc(Br)cc2)[nH]c2ccccc12` reads 16.1%.
On to `CCCN(CCC)CCNS(=O)(=O)c1ccc2c(c1)oc(=O)n2C`, for which the “hERG current change (%, negative = inhibition) at 10uM” value worked out at 14.8%.
In the case of `Cc1nnc(NC(=O)CSc2nnc(CNC(=O)c3ccccc3)n2-c2ccccc2)s1` it was 6.12%; in that of `CC1CCC(NC(=O)COC(=O)CCC(=O)c2ccc(Cl)s2)CC1` (stereo not drawn), 17.9%; in that of `CCn1c(=O)c(=O)[nH]c2cc(C(=O)NC3CCCC3)ccc21`, 19%.
As to `O=S(=O)(Nc1ccc2oc(-c3ccccc3)nc2c1)c1ccccc1`, the “hERG current change (%, negative = inhibition) at 10uM” value is recorded as -12.3%.
In the case of `COc1ccc(-c2c(C)nn3c(N4CCC(C(=O)N5CCCCC5)CC4)cc(C)nc23)cc1OC` it was -8.83%.
The result for `CC1(C)CC(N2CCCC2)=CC(=[N+]2CCCCCC2)C1.[I-]` reads -8.68%; that for `O=C(Nc1c(F)cc(F)cc1Br)c1cc(-c2ccco2)on1`, -1.65%.
In the case of `O=C(NCCCN1CCOCC1)c1ccccc1.O=C(O)C(=O)O` it was 21.1%; in that of `O=C(CNc1cccc(S(=O)(=O)N2CCOCC2)c1)Nc1cccc(Br)c1`, -21.6%.
For `NC(=O)[C@@H]1CCCN1Cc1c(C(=O)N2CCN(C3CCCCC3)CC2)nc2ccccn12`, the “hERG current change (%, negative = inhibition) at 10uM” value came out at 1.39%.
In the case of `COc1ccc(NC(=O)CN2C(=O)NC(c3ccccc3)(c3ccccc3)C2=O)cc1OC` it was -22.2%; in that of `COc1ccc(Cl)cc1NC(=S)N1CCCC1`, 15.5%.
Take `Cc1nnc(NC(=O)c2ccc(C)c(S(=O)(=O)N3CCOCC3)c2)s1`: the “hERG current change (%, negative = inhibition) at 10uM” value was found to be 9.4%.
In the case of `CN(C)C=O.O=C(NCCc1ccccc1)c1oc2ccccc2c1COc1ccccc1` it was 12.4%; in that of `CCOC(=O)c1ccccc1Oc1c(F)c(F)nc(NCCO)c1F`, 10.2%; in that of `O=C1NC[C@H](CC2CCCCC2)N(CCc2cccc(F)c2)C1=O`, -10.7%.
In the case of `Cc1cc(C)c2c(CN3CCN(C/C=C/c4ccccc4)CC3)cc(=O)oc2c1` it was -76.9%; in that of `Cn1c(=O)[nH]c2cc3ccccc3cc21`, 2.36%; in that of `CC(=NCCN1CCN(C(=S)Nc2ccccc2)CC1)C1=C(O)CC(C)(C)CC1=O`, -15.3%.
The result for `O=C(CSc1nnnn1-c1ccc(F)cc1)Nc1ccc(N2CCOCC2)c(Cl)c1` reads -18.1%; that for `Cc1cc(S(=O)(=O)Nc2ccc(C(=O)NCC(c3ccco3)N3CCCCC3)cc2)ccc1F` (stereo not drawn), -41.2%; that for `O=C(Nc1nc2c(Cl)cccc2s1)c1ccc([N+](=O)[O-])o1`, 26.8%.
Regarding `Oc1ccc(Cl)cc1C(C#Cc1ccccc1)N1CCOCC1` (stereo not drawn), the “hERG current change (%, negative = inhibition) at 10uM” value is recorded as -0.922%.
In the case of `COCCNC(=S)Nc1ccc2nsnc2c1` it was -11.2%; in that of `COc1ccc(CN(C)C(=O)c2[nH]c(C)c(C(C)=O)c2C)c(OC)c1OC`, -1.66%; in that of `COc1ccc(C(=O)CSc2nnc(CNc3nc(-c4ccccc4)cs3)n2C)cc1`, -11.8%.
With `CCOC(=O)c1c(C)n(CCOc2ccccc2)c2ccc(O)cc12`, the “hERG current change (%, negative = inhibition) at 10uM” value stood at 17.9%.
In the case of `O=C(NCCN1CCOCC1)c1ccc(Cl)nc1` it was 6.3%.
The result for `CCCCNC(=O)c1ccc2c(SCC(=O)O)c3c(nc2c1)CCCC3` reads 7.59%; that for `Cc1ccccc1OCC(=O)NNC(=O)C1CC(=O)N(c2ccc3c(c2)OCCO3)C1` (stereo not drawn), -9.06%; that for `COc1ccc(-c2cn3cccnc3n2)cc1NC(=O)C1CCCC1`, -6.23%.
In the case of `O=C(NCC1CCCO1)c1cccc(N2C(=O)C3C4C=CC(C4)C3C2=O)c1` (stereo not drawn) it was 5.84%.
`COc1ccc(Nc2ncccc2C(=O)NCc2ccccc2)cc1`: the “hERG current change (%, negative = inhibition) at 10uM” value worked out at 0.461%.
The result for `CC(=O)C(=Nc1ccc(Cl)cc1Cl)NNc1cccc(Cl)c1` reads 13.5%; that for `COC(=O)[C@H](Cc1ccccc1)NC(=O)NCc1ccc(S(N)(=O)=O)cc1`, 19.1%; that for `Cn1ncc2c(NNC(=O)c3ccc(Cl)cc3Cl)ncnc21`, 10.2%.
Consider `COc1cc(CNn2cnnc2)ccc1OCC(=O)NC1CCCCC1`, for which the “hERG current change (%, negative = inhibition) at 10uM” value is given as -1.35%.
Regarding `COc1cc(CN2CCN(c3cccc(C)c3C)CC2)cc(OC)c1O`, the “hERG current change (%, negative = inhibition) at 10uM” value is on record as -45.4%.
In the case of `CC(CCc1ccccc1)NC(=O)CSc1ccccn1` (stereo not drawn) it was -18.5%.
In the case of `O=C(CC1(CC(=O)N2CCOCC2)CCCC1)Nc1ccccc1` it was -1.63%; in that of `Cc1nc2c(C)cccn2c1/C(O)=C1\C(=O)C(=O)N(CCN(C)C)C1c1ccncc1` (stereo not drawn), 4.49%; in that of `CN(CC(=O)Nc1c(Cl)cccc1Cl)C(=O)Cn1[nH]c(=O)c2ccccc2c1=O`, 0.265%.
In the case of `Cc1ccc(CNC(=O)C2CC=CCC2C(=O)O)cc1` (stereo not drawn) it was 16.3%; in that of `COc1ccc(NC(=O)CSc2cn[nH]n2)c(OC)c1`, 10.8%.
For the molecule `Cc1nnc(NC(=O)c2ccccc2NC(=O)c2ccccc2)s1`, the “hERG current change (%, negative = inhibition) at 10uM” value amounted to 8.36%.
The result for `Cc1ccc(-c2nc(SC(C)C(=O)N3CCOCC3)n[nH]2)cc1` (stereo not drawn) reads 4.04%.
The result for `Cc1ccc(CS(=O)(=O)CCC(=O)NCc2ccc3c(c2)OCO3)cc1` reads -7.75%; that for `CCOc1ccccc1OCCCNCc1ccccc1.O=C(O)C(=O)O`, -6.53%; that for `CCN(C(=O)CSc1nnc(-c2c[nH]c3ccccc23)o1)C1CCS(=O)(=O)C1` (stereo not drawn), 7.81%.
In the case of `O=C1C=C(N2CCN(C(=O)c3ccccc3)CC2)C2(CCCCC2)O1` it was -10.3%.
With `CCc1c(O)nc(SCC(=O)Nc2ccccc2C)[nH]c1=O`, the “hERG current change (%, negative = inhibition) at 10uM” value is on record as 6.84%.
On to `O=C(Nc1ccccc1C(=O)O)c1ccc(NC(=O)c2ccc(Br)o2)cc1`, for which the “hERG current change (%, negative = inhibition) at 10uM” value is given as 11.7%.
The result for `Cc1ccc(NC(=O)[C@H](C)NC(=O)C2CCN(C(=O)[C@@H](N)C(C)C)CC2)cc1` reads 5.23%.
In the case of `COc1ccc(NC2CCCN(C(=O)c3cn(C)c4ccccc34)C2)cc1` (stereo not drawn) it was 3.47%.
The result for `CC1=NN(S(=O)(=O)c2ccc(Cl)cc2Cl)C(=O)c2ccccc2O1` reads -24.3%; that for `O=C1CC2(CCN(C(=O)COc3ccccc3)CC2)Oc2ccccc21`, -67.4%; that for `O=C1CN(c2nc3nonc3nc2N2CCCCC2)CCN1`, 10.5%.
`CCNC(=S)NNC(=O)c1cc(C2CC2)nc2ccccc12`: the “hERG current change (%, negative = inhibition) at 10uM” value is listed as -17.8%.
In the case of `C#CCNC(=O)C1=C[C@@H](c2cn(C(C)=O)c3ccccc23)C[C@@H](OCCCCO)O1` it was -40.1%; in that of `O=C(Cc1ccccc1)NCCn1ccc2ccccc21`, 1.61%; in that of `Cc1ccc(C)c(NC(=O)C2CCCN(c3cnccn3)C2)c1` (stereo not drawn), -13.3%.
The result for `CSc1ccccc1-n1nnnc1SCC(=O)Nc1cc(C)ccc1C` reads -5.79%; that for `O=C(O)CCCn1nc(C(F)(F)F)c2c1CCCCC2`, 8.82%.
In the case of `O=C(CSc1nc2ccccc2c(=O)n1-c1ccc(F)cc1)Nc1ccc(Cl)c(S(=O)(=O)N2CCOCC2)c1` it was -21.9%; in that of `CCCCCc1ccc(-c2ccc(OCC)cc2)nc1`, 0.649%.
Turning to `CC(=O)Nc1ccc(NCC(O)COc2ccccc2)cc1.Cl` (stereo not drawn), the “hERG current change (%, negative = inhibition) at 10uM” value was -3.82%.
The result for `COc1cc(CNCCc2c[nH]c3ccccc23)ccc1OCc1ccccc1F.Cl` reads -52%.
The result for `S=C1N(c2ccccc2)C(c2ccc(Br)cc2)N2CCCN12` (stereo not drawn) reads 10.2%; that for `COC(=O)[C@H](CCSC)NC(=O)NCCC1=CCCCC1`, -4.33%.
In the case of `Cn1nc(C(=O)Nc2nc3ccccc3[nH]2)ccc1=O` it was -35.8%.
As for `CCOC(=O)c1ccc(S(=O)(=O)Nc2ccc3cn[nH]c3c2)cc1`, the “hERG current change (%, negative = inhibition) at 10uM” value was 2.39%.
In the case of `COC(=O)c1nc2ccccn2c1F` it was 13.2%; in that of `Cl.O=C(CN(CCO)c1ccccc1)NC12CC3CC(CC(C3)C1)C2`, 5.29%.
The result for `C/C(=C\c1ccccc1)CN1CCN(c2ccccc2F)CC1` reads 5.01%.
The result for `COc1cc(/C=C2\SC(=S)N(CCC(=O)Nc3ccc(O)cc3)C2=O)cc(OC)c1OC` reads 11.9%; that for `Cc1cccc(/C=N/NC(=O)c2cc3c(s2)-c2ccccc2CC3)c1`, 9.72%.
On to `CCCCc1nc(C(N)=O)c2[nH]c(=O)n(-c3ccc(OC)cc3OC)c2n1`, for which the “hERG current change (%, negative = inhibition) at 10uM” value came out at 1.88%.
In the case of `Cc1ccc(Cn2nc(C)c(NC(=O)C3(C)CC3(Br)Br)c2C)cc1` (stereo not drawn) it was -1.81%; in that of `Cc1cc(CC(=O)O)c2oc(-c3ccoc3)cc(=O)c2c1`, 17.2%; in that of `O=C(/C=C/Nc1ccc(Oc2ccccc2)cc1)c1ccco1`, 9%.
In the case of `CCCCP(=O)(O)CCC(=O)O` it was 12.7%.

(Values after publication PMC4336329 (PLoS ONE, 2015).)
